# Among all 410,000 compounds or so, about 6,400 (1.6%) were called active. This list was built around the results that the source calls inconclusive (neither active nor inactive); the mix of calls is not that of the screen. Calls follow the shape of the dose curve; as a rule, active = well fitted inhibition curve with a large enough effect; inconclusive = small, poorly fitted or top-dose-only effect; inactive = no such curve, though single readings can be large or run the other way. No potency is given beside an inconclusive call; the fits are too rough.
# Target: Glucagon-like peptide 1 receptor (Homo sapiens) (UniProt P43220)
# UniProt P43220, sequence (P43220 whole entry, looked up): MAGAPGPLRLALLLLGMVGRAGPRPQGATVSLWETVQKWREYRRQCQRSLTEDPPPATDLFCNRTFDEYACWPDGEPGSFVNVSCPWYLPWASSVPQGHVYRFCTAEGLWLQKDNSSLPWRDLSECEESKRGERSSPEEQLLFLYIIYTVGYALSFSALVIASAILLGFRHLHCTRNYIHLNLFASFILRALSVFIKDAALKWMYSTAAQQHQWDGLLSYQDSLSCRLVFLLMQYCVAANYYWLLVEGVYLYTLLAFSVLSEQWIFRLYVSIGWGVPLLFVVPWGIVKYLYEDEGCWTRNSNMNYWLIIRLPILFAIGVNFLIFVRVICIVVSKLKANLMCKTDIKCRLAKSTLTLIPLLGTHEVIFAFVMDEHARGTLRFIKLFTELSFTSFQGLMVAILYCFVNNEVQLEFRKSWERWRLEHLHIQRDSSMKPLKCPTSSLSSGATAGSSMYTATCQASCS
# Experiment: qHTS of GLP-1 Receptor Inverse Agonists (Inhibition Mode); also: nearly all actives have a fitted effect of over 55% in size
# Details: HEK293 GLP-1R CRE-luciferase, luminescence, 24 h, GLP-1R form is constitutively active; activity change, negative = inhibition: at 38.3 µM (top of the series) unless noted
# Procedure, shortened: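 Luminescence readout: a drop in cAMP-driven luciferase signal flags inverse agonism at a constitutively active GLP-1R stably expressed in HEK293. Compound exposure lasted 24 hr at 37 deg C, 5% CO2.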
# % is scaled to controls: 0 for no effect and ±100 for the full control effect; potency is read from the fitted curve at half-maximal effect; tags tell the direction and shape of the fitted curve.
SMILES,Potency,"activity change, negative = inhibition"
CCCCNc1nc(Oc2ccc(=O)n(-c3ccccc3)n2)nc(N(C)C)n1,inactive,–
CCC(CC)c1nn2c(=O)cc(COc3ccc(NC(=O)c4ccc(Cl)cc4)cc3)nc2s1,inactive,–
COc1cccc2c(=O)cc(C)n(CC(=O)Nc3ccccc3C)c12,inactive,–
O=C(CN1CCCc2ccccc21)N/N=C/c1c(O)ccc2ccccc12,"inconclusive [inhibitor, full curve, poor fit]",–
CC1CCCN(S(=O)(=O)c2ccc(Cl)s2)C1 (stereo not drawn),"inconclusive [inhibitor, partial curve, poor fit]",–
CCOc1ccccc1NC(=O)c1cccc(NC(=O)C2CCCC2)c1,"inconclusive [inhibitor, partial curve, poor fit]",–
Cc1nc(Nc2cc(F)ccc2C)c2nnn(Cc3ccccc3)c2n1,"inconclusive [inhibitor, single point]",–
CC(Sc1oc(-c2ccco2)nc1S(=O)(=O)c1ccc(Br)cc1)c1ccccc1 (stereo not drawn),"inconclusive [inhibitor, single point]",–
CCCn1nc(C(=O)Nc2ccc3nc(N4CCOCC4)sc3c2)ccc1=O,inactive,–
O=C(c1ccco1)c1cn(CC(=O)N2CCCc3ccccc32)c2ccccc12,"inconclusive [inhibitor, single point]",–
Cc1cc(NC(=O)CSc2cn(CCNC(=O)c3ccc(Cl)cc3)c3ccccc23)no1,"inconclusive [inhibitor, single point]",–
Cc1oc2ncnc(N3CCCCC3)c2c1C(=O)NCC1CCN(Cc2ccc(F)cc2)CC1,"inconclusive [inhibitor, single point]",–
COC(CN(C)C(=O)C1CCCN(S(=O)(=O)c2ccc3c(c2)oc(=O)n3C)C1)OC (stereo not drawn),"inconclusive [inhibitor, single point]",–
CCOC(=O)C1(CCCc2ccccc2)CCN(Cc2cnn(C)c2)CC1,"inconclusive [inhibitor, partial curve, poor fit]",–
Cc1cc(C)nc(NC(N)=NC(C)c2ccccc2)n1 (stereo not drawn),"inconclusive [inhibitor, partial curve]",–
Cc1ccccc1CSc1nc2nc(C)c(Cc3ccccc3)c(C)n2n1,"inconclusive [inhibitor, single point]",–
COc1cccc(-c2noc(C3CCCN(C(=O)CC(C)(C)C)C3)n2)c1 (stereo not drawn),"inconclusive [inhibitor, partial curve]",–
COc1ccc(OC)c(CCNC(=O)c2ccc(CS(=O)Cc3cccc(Cl)c3)o2)c1 (stereo not drawn),"inconclusive [inhibitor, partial curve, poor fit]",–
CCOc1ccc(NC(=O)Cn2nc(-c3ccccc3Cl)n(CC)c2=S)cc1,"inconclusive [inhibitor, partial curve, poor fit]",–
CCN1CCS/C1=C\C=C\C1=[N+](CC)CCS1,"inconclusive [inhibitor, full curve, poor fit]",–
O=C(NCCOc1ccccc1)c1ccccc1Cl,–,inconclusive: -34.7% [inhibitor]

SMILES,Potency,"activity change, negative = inhibition"
CC(=O)NNC(=O)CC(=O)Nc1nc(C23CC4CC(CC(C4)C2)C3)cs1,"inconclusive [inhibitor, single point]",–
CC(=O)Nc1sc(C)c(C)c1C(=O)OCC(=O)N(C)C1CCS(=O)(=O)C1 (stereo not drawn),inactive,–
COc1cccc(NC(=O)c2oc3ccccc3c2NC(=O)C(C)(C)C)c1,"inconclusive [inhibitor, single point]",–
Cc1ccc(N(Cc2ccc(C(=O)Nc3ccccc3C(=O)NCc3ccco3)cc2)S(C)(=O)=O)cc1C,inactive,–
CC(NC(=O)Nc1ccccc1Cl)c1ccc2c(c1)OCO2 (stereo not drawn),"inconclusive [inhibitor, partial curve, poor fit]",–
C=CCNc1nc2cc(-c3ccccc3C)sc2c(=O)n1C,"inconclusive [inhibitor, partial curve]",–
O=C(Nc1cccc(Cl)c1)Nc1ccnc(-c2cccnc2)n1,"inconclusive [inhibitor, full curve]",–
COc1ccc(S(=O)(=O)N2CCN(C3CC4CCC3C4)CC2)cc1 (stereo not drawn),"inconclusive [inhibitor, partial curve, poor fit]",–
O=C(NC(c1ccc(Cl)cc1)c1cnccn1)C1CCN(CCCOc2ccccc2)CC1 (stereo not drawn),"inconclusive [inhibitor, partial curve, poor fit]",–
Cc1ccc(NC(=O)Cc2ccc(Cl)cc2)cc1S(=O)(=O)N1CCCCCC1,"inconclusive [inhibitor, partial curve, poor fit]",–
CCC(C)NC(=O)Cn1c(=O)n(-c2ccc(C)cc2)c(=O)c2ccccc21 (stereo not drawn),inactive,–
CC1(C(=O)Nc2cccc3c2CCCC3)CCN1C(=O)Cc1ccccc1Cl (stereo not drawn),"inconclusive [inhibitor, single point]",–
C[C@H]1CN([C@@H](C)CO)C(=O)Cc2cc(NC(=O)Nc3ccccc3)ccc2O[C@H]1CN(C)Cc1ccccc1,"inconclusive [inhibitor, partial curve, poor fit]",–
CCOc1cccc(N2CCN(CCNC(=O)Nc3ccc(C)cc3)CC2)c1C,"inconclusive [inhibitor, full curve, poor fit]",–
Cc1ccn2cc(CSc3ccccc3)nc2c1,"inconclusive [inhibitor, partial curve, poor fit]",–
Cc1noc(/C=C/c2cccnc2)c1[N+](=O)[O-],"inconclusive [inhibitor, partial curve, poor fit]",–
CCOC(=O)CC(NCc1ccc(OC)c(OCC)c1)c1ccc(C)cc1 (stereo not drawn),inactive,–
O=C1NCCN/C1=C\C(=O)c1ccc(Br)cc1,inactive,–
Cc1ccc(/C=C2\SC(=O)N(CCC(=O)N3CCN(C)CC3)C2=O)cc1,"inconclusive [inhibitor, partial curve, poor fit]",–
O=C1OC(c2ccccc2)(c2cc(Br)c(O)c(Br)c2)c2ccccc21 (stereo not drawn),"inconclusive [inhibitor, partial curve, poor fit]",–
COc1ccc(COC(=O)C2=C(C)NC(=O)NC2c2ccc(F)cc2)cc1 (stereo not drawn),"inconclusive [inhibitor, partial curve, poor fit]",–

SMILES,Potency,"activity change, negative = inhibition"
Cc1ccc(C)c(NC(=O)CN(C)C(=O)Cc2ccc(Cl)cc2Cl)c1,"inconclusive [inhibitor, partial curve, poor fit]",–
CC1CCCN(C(=O)c2ccc3c(c2)C(=O)N(CCC2=CCCCC2)C3=O)C1 (stereo not drawn),"inconclusive [inhibitor, partial curve, poor fit]",–
CCN(CCCNC(=O)c1cc2cc3cc(C)ccc3nc2s1)c1cccc(C)c1,"inconclusive [inhibitor, single point]",–
CCOC(=O)c1c(NC(=O)/C=C/C(=O)O)sc(C)c1-c1ccc(F)cc1,"inconclusive [inhibitor, partial curve, poor fit]",–
Cn1cc(CCC(=O)NCCCc2ccccc2)c2ccccc21,"inconclusive [inhibitor, partial curve, poor fit]",–
Cc1cc(NC(=O)Nc2ccc(F)cc2F)n(C)n1,"inconclusive [inhibitor, single point]",–
Cc1cc(C(=O)Nc2nc(C)c(C(=O)N(C)C)s2)ccc1[N+](=O)[O-],"inconclusive [inhibitor, single point]",–
O=C(NCC1CCCCC1)c1ccc(Br)o1,"inconclusive [inhibitor, single point]",–
CC(C)Oc1ccc(CNC(=O)c2ccc(NC(=O)c3nsc4ccccc34)cc2)cc1,inactive,–
Cc1ccc(C2(C)NC(=O)N(CC(=O)N(C)CC(=O)Nc3cccc4ccccc34)C2=O)cc1 (stereo not drawn),"inconclusive [inhibitor, full curve]",–
CC(O)(c1cccnc1)c1nc(-c2ccc3ccccc3c2)cs1 (stereo not drawn),"inconclusive [inhibitor, single point]",–
COc1ccc(C(C(=O)NC(C)(C)C)n2c(-c3ccc(-c4ccccc4)cc3)nc3ccccc32)cc1 (stereo not drawn),inactive,–
O=C(NCCc1c[nH]c2ccccc12)C(=O)NCC1OCCN1S(=O)(=O)c1ccc(F)cc1 (stereo not drawn),"inconclusive [inhibitor, partial curve, poor fit]",–
COc1ccccc1CCC(=O)Nc1ccc(OC)c(S(=O)(=O)N2CCCCC2)c1,"inconclusive [inhibitor, single point]",–
CC(C)(C)C(=O)Nc1ccc2nc(SCC(=O)N3CCCC3)sc2c1,inactive,–
COc1cc(CNC(=O)c2nc(Cn3nc(C)c(Br)c3C)no2)cc(OC)c1,"inconclusive [inhibitor, partial curve, poor fit]",–
CCN(CC)S(=O)(=O)c1ccc(N2CCCCC2)c(NC(=O)C2CCN(C(=O)c3ccc(F)cc3)CC2)c1,"inconclusive [inhibitor, single point]",–
CC1CCN(C(=O)CCCOc2ccc(Cl)cc2)CC1,"inconclusive [inhibitor, single point]",–
COc1ccc(OC)c(C(c2nnnn2C2CCCC2)N2CCN(c3ccccc3F)CC2)c1 (stereo not drawn),"inconclusive [inhibitor, single point]",–
Cc1[nH]n(-c2ccccc2)c(=O)c1/C=N/N1CCOCC1,inactive,–
COc1cccc(CNC(=O)CCc2c(C)c3cc4c(C)c(C)oc4cc3oc2=O)c1,inactive,–

# Source: PubChem BioAssay AID624417 (National Center for Advancing Translational Sciences (NCATS), 2012)
